Assay results as given in paper PMC4336329 (PLoS ONE, 2015).
In all, about 310,000 compounds went through this assay and about 2,200 (0.71%) showed an effect of 50% or more. The effect is printed as a negative number. Some of the results follow.

biological target: human ether-à-go-go-related gene (hERG) potassium channel (human, UniProt Q12809); assay: primary screen, population patch clamp on CHO cells stably expressing hERG
Sequence (Q12809 whole entry, looked up): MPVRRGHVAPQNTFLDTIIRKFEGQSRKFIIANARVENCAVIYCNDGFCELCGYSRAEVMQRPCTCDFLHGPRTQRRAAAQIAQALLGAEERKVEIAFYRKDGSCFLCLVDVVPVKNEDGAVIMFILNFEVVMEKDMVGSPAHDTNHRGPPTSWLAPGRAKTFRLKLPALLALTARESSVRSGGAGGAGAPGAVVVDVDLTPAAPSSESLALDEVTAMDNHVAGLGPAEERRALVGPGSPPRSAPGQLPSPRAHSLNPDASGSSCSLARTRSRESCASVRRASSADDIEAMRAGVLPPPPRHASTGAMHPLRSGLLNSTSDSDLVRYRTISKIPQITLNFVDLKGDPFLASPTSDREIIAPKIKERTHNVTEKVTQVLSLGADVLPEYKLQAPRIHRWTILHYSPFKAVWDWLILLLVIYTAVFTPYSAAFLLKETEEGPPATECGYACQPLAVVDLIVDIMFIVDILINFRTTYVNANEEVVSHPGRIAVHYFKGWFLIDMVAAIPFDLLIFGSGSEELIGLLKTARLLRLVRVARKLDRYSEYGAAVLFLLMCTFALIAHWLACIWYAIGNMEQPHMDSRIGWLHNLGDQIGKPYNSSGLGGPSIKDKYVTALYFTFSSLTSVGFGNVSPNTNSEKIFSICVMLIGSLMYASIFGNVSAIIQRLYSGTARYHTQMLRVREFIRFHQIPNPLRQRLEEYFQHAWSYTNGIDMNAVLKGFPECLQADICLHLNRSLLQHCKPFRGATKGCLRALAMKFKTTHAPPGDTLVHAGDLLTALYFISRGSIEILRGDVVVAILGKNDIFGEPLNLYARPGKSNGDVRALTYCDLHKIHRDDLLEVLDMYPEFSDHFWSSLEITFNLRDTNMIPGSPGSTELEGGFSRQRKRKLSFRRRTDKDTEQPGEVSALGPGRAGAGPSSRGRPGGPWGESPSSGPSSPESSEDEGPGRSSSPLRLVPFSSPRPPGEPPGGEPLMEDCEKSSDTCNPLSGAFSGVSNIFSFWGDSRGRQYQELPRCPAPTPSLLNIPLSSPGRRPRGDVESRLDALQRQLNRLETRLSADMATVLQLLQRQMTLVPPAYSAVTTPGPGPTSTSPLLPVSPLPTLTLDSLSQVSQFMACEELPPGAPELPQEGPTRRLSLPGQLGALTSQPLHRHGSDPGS

SMILES | hERG current change (%, negative = inhibition) at 1uM
Cc1cccc(OCc2occc2C(=O)Nc2cccc(-n3cnnn3)c2)c1 | 14%
Cc1ccc(CN(C(=O)CNC(=O)c2cccs2)C(C(=O)NCC2CCCO2)c2ccccc2)cc1 (stereo not drawn) | 11.2%
CCOc1ccccc1CNC(=O)Cn1ccc2cc(S(=O)(=O)N3CCCCCC3)ccc21 | 13.2%
O=C1S/C(=C\c2ccc(O)c([N+](=O)[O-])c2)C(=O)N1c1ccccc1Cl | -13.4%
COc1ccc2oc(=Nc3ccc(C(=O)O)cc3)c(C(=O)NCc3ccco3)cc2c1 | 3.49%
CCCOc1cccc(C(=O)Nc2ccc3c(c2)OCCO3)c1 | 11%
COc1ccc(S(=O)(=O)N2CCc3ccccc32)cc1C(=O)OCc1nnc(-c2ccccc2)o1 | 12.8%
CC1(C)OC(=O)C(=CNc2ccc(F)cc2)C(=O)O1 | 3.35%
CCCCCCc1c(O)nc(SCC(=O)O)[nH]c1=O | 8.83%
Cc1ccc(S(=O)(=O)NC(=O)NCCCN2CCOCC2)cc1 | 9.45%
CSc1nnc(-c2ccc(S(=O)(=O)N3CCOCC3)cc2)n1C | -5.27%
O=[n+]1c2c(n([O-])c3cc(F)c(N4CCCC4)cc31)CCCC2 | 10.7%
CCCn1c(=O)c(C(=O)NC(C)c2ccccc2)c(O)c2ccccc21 (stereo not drawn) | 13.5%
Cc1c(NC(=O)c2cnn3c2NC(c2ccccc2)CC3C(F)(F)F)c(=O)n(-c2ccccc2)n1C (stereo not drawn) | -6.34%
O=C(Nc1ccc(Cl)cc1Cl)c1cc2ccccc2o1 | 7%
CN(C(=O)c1ccc(NC(=O)Cc2ccc(NC(=O)C3CCN(C(=O)C4CC4)CC3)cc2)cc1)C1CC1 | 15%
C/C(=C\c1ccccc1)C1Nc2cccc3cccc(c23)N1 | 13.8%
COc1ccc(CNC(=O)CSc2nnc3c(n2)[nH]c2ccc(OC)cc23)cc1 | 11.1%
Cc1ccc(CNC(=O)C2CCN(S(=O)(=O)N3CCCC3)CC2)cc1 | 9.35%

SMILES | hERG current change (%, negative = inhibition) at 1uM
COc1ccc(OCCC(=O)OCC(=O)NCCc2ccccc2)cc1 | 6.35%
COc1cc(/C=C/C(=O)OCC(=O)Nc2c(C)n(C)n(-c3ccccc3)c2=O)ccc1OCC#N | 15.8%
CCC(C)NS(=O)(=O)c1ccc(OC)c(Cl)c1Cl (stereo not drawn) | 10.2%
Clc1nc2c(ccc3ccccc32)[nH]1 | -0.367%
Cc1ccc(S(=O)(=O)N2CCCC2C(=O)Nc2ccc(O)cc2)cc1 (stereo not drawn) | 5.75%
CC(C)(C)C(=O)COC(=O)CCc1nc2ccccc2[nH]c1=O | 17.5%
O=C(O)c1cccc(CN2C(=O)CSC2=O)c1 | 14.7%
N#Cc1ccccc1OCC(=O)OCC(=O)NC1CCCCCC1 | 7.72%
Cc1nc(CC(=O)Nc2nc(C(C)(C)C)cs2)cs1 | 3.25%
CCN(CC)CCn1c2c(c(SCC(=O)Nc3ccc4c(c3)OCO4)nc1=O)CCC2 | -4.69%
CCCCNC(=O)CSc1nnc(Cc2ccc(Cl)c(Cl)c2)c(=O)[nH]1 | 10.6%
COc1cc(CN(CC2CCCO2)C(=O)c2cccs2)cc(OC)c1OC (stereo not drawn) | 15.7%
Cl.Cn1c(=O)c2c(nc(N3CCCCC3)n2CCCNC2=NCCCC2)n(C)c1=O | 9.98%
CCn1nc(C)c(/C=N\NC(=O)c2cccc(OC)c2)c1C | 9.37%
OCCCc1cn(Cc2ccccc2)c2ccccc12 | 8.5%
CCS(=O)(=O)N1Cc2ccccc2CC1C(=O)Nc1nccs1 (stereo not drawn) | 5.8%
Cc1ccc(C(C(=O)NCc2ccc(F)cc2)N(C(=O)c2csnn2)C2CC2)cc1 (stereo not drawn) | 5.22%
CC(C)CN(Cc1cc(=O)oc2cc3c(cc12)CCCC3)CC(C)C | 13.1%
O=c1c2ccccc2nc(N/N=C/c2ccccc2)n1O | 1.41%

SMILES | hERG current change (%, negative = inhibition) at 1uM
CC1=Nc2ccc(C)c3nc(C)cc(c23)N1c1ccc(C)cc1 | 2.45%
Cc1cc(C)c2cc(CN(Cc3cccs3)Cc3nnnn3CC3CCCO3)c(=O)[nH]c2c1 (stereo not drawn) | -4.65%
Cc1cc(NC(=O)CCCC(=O)N(CC(=O)NC2CCCCC2)c2ccccc2)no1 | 7.05%
CC(C)(C)c1ccc(S(=O)(=O)NCCc2ccncc2)cc1 | 5.9%
COc1ccc(Cc2n[nH]c(=S)n2C)cc1Br | 9.66%
CCCCC#Cc1ccc(C(=O)NNC(=O)Nc2ccccc2)o1 | 13.1%
CCCc1ccc2oc(C(=O)NCc3nnc(C)o3)c(C)c2c1 | 1.11%
CC1CCN(c2ccc(C(=O)NCCc3ccccc3)cn2)CC1 | -5.16%
CC1=C(CC(=O)c2ccc(Cl)cc2)C(=O)c2ccccc2C1=O | 5.7%
O=c1oc2ccccc2cc1-c1nc2ccccc2[nH]1 | 15.9%
CNC(C(=O)c1ccccc1)C(OC(C)C)c1ccc(Cl)cc1.[O-][Cl+3]([O-])([O-])O (stereo not drawn) | 0.598%
COc1ccccc1NC(=O)CSc1c2c(nc3ccccc13)CCC2 | 7.97%
Cc1ccsc1-c1nc(-c2ccccc2)c(-c2ccccc2)[nH]1 | 19.8%
CCCNC(=S)N1CCC(NC(=O)c2ccc(C)cc2)CC1 | 11.3%
Cc1ccc(NC(=O)CCC(=O)N/N=C/C=C/c2ccccc2)cc1 | 7.57%
CCN(CC)C(=O)/C(=C\c1ccc2c(c1)OCO2)NC(=O)c1ccc(Br)cc1 | -41.8%
c1ccc(-c2c3ccccc3nc3[nH]c4ccccc4c23)cc1 | 10.8%
COc1ccc(C2CC3CC(c4ccccc4)N2O3)cc1 (stereo not drawn) | 3.09%
CCOc1ccc(NC(=O)CN(C)C(=O)c2ccccc2SCc2c(C)noc2C)cc1OCC | -10.8%
